The values below are quoted from earlier work in patent US20240390359A1, “METHODS FOR THE TREATMENT AND PREVENTION OF NON-VIRAL TICK-BORNE DISEASES AND SYMPTOMS THEREOF” (priority 2023, published 2024).

The test system of the data set is P. falciparum gametocytes. The settings on record: single dose 1.66 mg/kg combined with dihydroartemisinin/piperaquine; cited from earlier work.

In the case of `COc1cc(C)c2c(Oc3cccc(C(F)(F)F)c3)c(OC)cc(NC(C)CCCN)c2n1` (stereo not shown) [tafenoquine, N (4)-[2,6-Dimethoxy-4-methyl-5-[3-(trifluoromethyl)phenoxy]quinolin-8-yl] pentane-1,4-diamine], the “time until gametocytes non-infectious to mosquitoes” value was “within seven days”.
